# Test results from PubChem BioAssay AID686978 (National Center for Advancing Translational Sciences (NCATS), 2013).
# In all, about 420,000 compounds went through this assay and about 64,000 (15%) were called active. The shares of active, inactive and inconclusive entries below differ from those in the screen. Calls come from the whole dose curve; as a rule, active = well fitted inhibition curve with a large enough effect; inconclusive = small, poorly fitted or top-dose-only effect; inactive = flat fitted curve, though single readings scatter. Potencies of inconclusive entries are left out as doubtful fits.
# Assay: qHTS for Inhibitors of human tyrosyl-DNA phosphodiesterase 1 (TDP1): qHTS in cells in absence of CPT; note: nearly all actives have a fitted effect of over 55% in size
# Conditions: DT40 Tdp1-/- hTDP1 cells, no CPT, ATP luminescence, 48 h; activity change, negative = growth inhibition: at 46.2 µM (top of the series) unless noted
# Summary of the method: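 Seeded 400 DT40-hTDP1 cells/well (vehicle DMSO, no 20 nM CPT); pinned compounds; ≥48 hr at 37 °C; CellTiter-Glo luminescence as viability measure.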
# % is set by controls: 0 for no effect and ±100 for the full control effect; potency is the fitted concentration of half-maximal effect; tags give direction and shape of the fitted curve.
Compound,Potency,"activity change, negative = growth inhibition"
O=C1CC(c2cccc([N+](=O)[O-])c2)c2ccc3ccccc3c2N1 (stereo not given),"inconclusive [inhibitor, single point]",–
Cn1cccc1/C=C1\SC(=O)N(c2ccccc2)C1=O,–,inconclusive: -31% [inhibitor]
c1ccc(-c2ccc(-c3cnc4n3CCCCC4)cc2)cc1,active: 18.4 µM,–
Cc1c(C(=O)N2CCC(c3nc4ccccc4s3)CC2)oc2cc(Br)ccc12,"inconclusive [inhibitor, single point]",–
COc1ccc(NC(=O)C(c2ccc(C#N)cc2)n2c(=O)c(-c3cc4ccccc4[nH]3)nc3ccccc32)cc1 (stereo not given),active: 14.6 µM,–
COc1cccc(-c2cc(C(=O)NC3CC3)c3ccccc3n2)c1,"inconclusive [inhibitor, partial curve, poor fit]",–
Cc1cc(C)cc(N2C(=O)CC(c3ccccc3)CC2=O)c1,–,inactive: 7.37%
Cc1csc(NC(=O)CSc2nnc3c4ccccc4nc(C(C)(C)C)n23)n1,active: 5.8 µM,–
Cc1ccc(CSCc2nc3ccccc3[nH]2)cc1,active: 20.6 µM,–
CCOc1cccc2cc(-c3nc4sc5c(c4c(=O)[nH]3)CCC(C(C)(C)C)C5)c(=O)oc12 (stereo not given),–,inactive: -3.28%
CCCCCCn1c(COc2ccccc2F)nnc1SCC(=O)N1c2ccccc2NC(=O)C1(C)C,active: 16.4 µM,–
O=C(Cn1c(=O)ccn(Cc2ccccc2)c1=O)Nc1cccc(S(=O)(=O)N2CCOCC2)c1,–,inactive: 1.34%
COc1ccc(CCN2C(=O)COc3ccccc3C2C(=O)Nc2ccc3c(c2)OCCO3)cc1OC (stereo not given),active: 20.6 µM,–
CCOc1ccc(-n2c(SCc3nc(-c4ccc(OC)cc4)no3)nnc2-c2ccncc2)cc1,"inconclusive [inhibitor, single point]",–
CCCNC(=O)c1cc2nc(-c3ccc(Br)cc3)cc(C(F)(F)F)n2n1,"inconclusive [inhibitor, full curve]",–
CSC1=C(C#N)C(CC(C)C)C(C(C)=O)=C(C)N1 (stereo not given),"inconclusive [inhibitor, single point]",–
COc1ccc(-c2ccc(CN3C(CC(C)C)C(=O)N(Cc4cn(CC5CCCCC5)nn4)CCS3(=O)=O)cc2)cc1OC (stereo not given),active: 20.6 µM,–
CCCCCCCCCC(=O)N/N=C(\C)c1cccnc1,"inconclusive [inhibitor, single point]",–
O=C(NC(=S)N1CCCCC1c1cccnc1)c1ccccc1 (stereo not given),"inconclusive [inhibitor, single point]",–
CSc1ncccc1C(=O)OCC(=O)c1cc(C)n(CC2CCCO2)c1C (stereo not given),"inconclusive [inhibitor, single point]",–
CCc1nn(C(C)C(=O)NCCN2CCN(c3cccc(C)c3C)CC2)c(=O)c2cc3occc3n12 (stereo not given),active: 16.4 µM,–
CCOC(=O)c1sc(=NC(=O)/C=C/c2ccccc2)n(C)c1C,–,inactive: 12.3%
N#Cc1cccc(NC(=O)N2CCCC3(CCN(C(=O)c4ccco4)CC3)C2)c1,–,inactive: -2.78%
O=C(COc1ccc(F)cc1)Nc1nc2c(s1)CCCC2,–,inactive: -65.1%

Compound,Potency,"activity change, negative = growth inhibition"
COc1ccc(Br)cc1CNC(=O)c1cc2ccccn2n1,"inconclusive [inhibitor, single point]",–
CCC(=O)c1c[nH]c(C(=O)N2CCN(c3ccccc3)CC2)c1,–,inactive: -14.4%
CC(=O)N1c2ccc(S(=O)(=O)NCCc3ccccc3)cc2CC1C (stereo not given),active: 11.6 µM,–
COc1ccc(NC(=O)Nc2cccc(OC)c2)cc1,–,inactive: -0.885%
O=c1[nH]c(CN2CCN(Cc3ccccc3)CC2)nc2scc(-c3ccccc3)c12,"inconclusive [inhibitor, single point]",–
O=C(CC12CC3CC(CC(C3)C1)C2)NC(=S)Nc1ccc(CN2CCOCC2)cc1,"inconclusive [inhibitor, single point]",–
COc1cc(C(=O)N2CCc3ccccc32)ccc1OCc1c(C)noc1C,"inconclusive [inhibitor, partial curve]",–
CCN(CC)S(=O)(=O)c1cccc(NC(=O)C2CC(=O)N(c3ccc4c(c3)OCCO4)C2)c1 (stereo not given),"inconclusive [inhibitor, single point]",–
COc1cccc(/C=N/c2sc(Cc3ccccc3)c(C)c2C(N)=O)c1O,"inconclusive [inhibitor, single point]",–
CCOc1ccc(OCc2ccc(C(=O)NCC3CCCO3)o2)cc1 (stereo not given),–,inconclusive: -37.4% [inhibitor]
O=C(COC(=O)c1cc(-c2cccs2)nc2ccccc12)c1ccc(Br)cc1,"inconclusive [inhibitor, partial curve, poor fit]",–
COc1ccccc1CNC(=O)C(=O)NCC1CCCN1S(=O)(=O)c1cc(C)ccc1C (stereo not given),"inconclusive [inhibitor, single point]",–
CCOc1ccccc1NC(=O)Cn1c(=O)n(CCC(C)C)c(=O)c2cccnc21,–,inactive: -14.1%
COc1ccc(C2CC(=O)N(C)c3ccccc3S2)cc1 (stereo not given),"inconclusive [inhibitor, single point]",–
Cc1cc(C)cc(OCCn2c(C3CC(=O)N(c4ccccc4Cl)C3)nc3ccccc32)c1 (stereo not given),active: 20.6 µM,–
O=C(CN1CCN(C(C(=O)Nc2ccc(Cl)cc2C(F)(F)F)c2ccccc2)CC1)NC1CC1 (stereo not given),"inconclusive [inhibitor, single point]",–
NC(=O)CC(O)c1cccc(Cl)c1 (stereo not given),"inconclusive [inhibitor, single point]",–
COc1ccc(-c2noc(C3CCCN(C(=O)c4cccs4)C3)n2)cc1 (stereo not given),"inconclusive [inhibitor, single point]",–
Cc1cc(Oc2cnn(C(C)(C)C)c(=O)c2Cl)cc(C(C)C)c1,"inconclusive [inhibitor, single point]",–
CC1=C(C(=O)Nc2ccccc2)C(c2ccccc2C)n2ncc(C(=O)Nc3ccccc3)c2N1 (stereo not given),–,inactive: -74.3%
CCOC(=O)c1sc(N=NC2=C(O)CCCC2=O)c(C(=O)OCC)c1C,–,inactive: -13.9%
Cc1ccc(SCC(=O)OCC(=O)N(C)C2CCS(=O)(=O)C2)cc1C (stereo not given),"inconclusive [inhibitor, single point]",–
NS(=O)(=O)c1cccc(NC(=O)COC(=O)Cn2cnc3ccccc32)c1,–,inactive: 17.8%
Cc1nc2ccccc2n1CCc1nc2c3ccccc3nc(SCc3cccc(F)c3)n2n1,"inconclusive [inhibitor, partial curve]",–

Compound,Potency,"activity change, negative = growth inhibition"
CCN(CC)C(=O)C1=C(C)N(Cc2ccc(F)cc2)C(=O)C(CC(=O)NCCCN(C)C)C1 (stereo not given),–,inactive: -1.95%
COc1ccc(CNC(=O)COc2ccc(S(=O)(=O)N3CCCCC3)cc2Cl)cc1,"inconclusive [inhibitor, single point]",–
COc1ccc(C(=O)N/C(=C\c2cccc3ccccc23)C(=O)N2CCN(C)CC2)cc1,active: 18.4 µM,–
CCN1CCN(C(=O)c2ccccc2N(Cc2ccccc2)S(C)(=O)=O)CC1,–,inactive: 0.653%
CCOc1ccc(N(CC(=O)Nc2cccc(N(C)S(C)(=O)=O)c2)S(=O)(=O)c2ccccc2)cc1,"inconclusive [inhibitor, partial curve, poor fit]",–
CC1CCCC(NC(=O)NC(=O)COC(=O)c2ccc(O)cc2O)C1C (stereo not given),"inconclusive [inhibitor, single point]",–
COc1cc(OC)nc(NC(=O)CS(=O)(=O)c2ccccc2)n1,–,inactive: 1.35%
O=C1NC[C@@H](CCCCN2C[C@H](Cc3ccc(O)cc3)N(CCC3CCCCC3)C(=O)C2=O)N(Cc2ccccc2)C1=O,–,inactive: -15.5%
CC1CCN(C(=O)CSCC(=O)O)CC1,–,inactive: 3.92%
Cc1nc(C(Cl)(Cl)Cl)nc2[nH]ccc(=O)c12,active: 16.4 µM,–
COc1ccccc1C(CNC(=O)CN1C(=O)NC(C)(c2ccc3ccccc3c2)C1=O)N1CCCC1 (stereo not given),"inconclusive [inhibitor, single point]",–
CCN1CCCC1CNC(=O)c1cnn(-c2nccc(-c3cc(OC)ccc3OC)n2)c1C (stereo not given),–,inactive: -22.9%
Cc1cccc2sc(N(CCCN(C)C)C(=O)c3cc4ccccc4oc3=O)nc12,"inconclusive [inhibitor, partial curve, poor fit]",–
COc1cc(/C=N/NC(=O)c2ccccn2)ccc1OC(=O)c1ccccc1Br,"inconclusive [inhibitor, single point]",–
C[C@@H]1CN([C@@H](C)CO)C(=O)c2cc(C#Cc3cccc(F)c3)cnc2O[C@@H]1CN(C)CC1CCOCC1,"inconclusive [inhibitor, single point]",–
CN1CCN(S(=O)(=O)c2cccc(C(=O)Nc3nccs3)c2)CC1,–,inactive: -16.4%
O=C(c1cc(F)ccc1F)C1CCCN(C(=O)c2cccs2)C1 (stereo not given),"inconclusive [inhibitor, single point]",–
Cc1cc(OCC(=O)Nc2ccc(S(=O)(=O)N3CCN(C)CC3)cc2)cc(C)c1Cl,"inconclusive [inhibitor, single point]",–
c1cc2c(cc1Oc1nc(N3CCOCC3)nc(N3CCOCC3)n1)OCO2,"inconclusive [inhibitor, single point]",–
CCNc1ncc2nc(-c3ccc(Cl)cc3)c(=O)n(Cc3ccc(F)cc3)c2n1,–,inactive: -10.8%
O=C(Nc1cccc(S(=O)(=O)N2CCOCC2)c1)C1COc2ccccc2O1 (stereo not given),"inconclusive [inhibitor, single point]",–
Cc1cc(=O)oc2cc(OCc3ccc(C(=O)OCC(=O)Nc4ccccc4OC(F)F)cc3)ccc12,"inconclusive [inhibitor, single point]",–
